Data published in ChEMBL document CHEMBL4888484, “Replenishing the malaria drug discovery pipeline: Screening and hit evaluation of the MMV Hit Generation Library 1 (HGL1) against asexual blood stage Plasmodium falciparum ,using a nano luciferase reporter read-out” (2022).
Hit rate of the full screen: of about 150,000 compounds, about 540 (0.36%) showed an effect of 50% or more. This is one part of the list.

test system: Plasmodium falciparum; experiment: Primary screen in NF54 nanoGlo assay, in single point, at 2uM, 72h; a lower Z score goes with more inhibition; assay type: functional, Erythrocyte; conditions: timepoint 72 hour

Structure (SMILES) | % Inhibition [%] | Z score
O=C(NCc1ccc(F)cc1)Nc1nnc(-c2ccccc2Cl)o1 | -1 | 0.09
c1n[nH]cc1Nc1nc(C2CCCCC2)ns1 | 29 | -3.27
CCOC(=O)CC1C(=O)NC2CCCCC2N1C(=O)Nc1ccc(Cl)cc1 (stereo not drawn) | -11 | 1.74
O=C(NC[C@@H](c1ccco1)N1CCCC1)c1cnc(-c2ccncc2)nc1 | 5 | -0.86
Cc1ccc(NC2CCN(C)CC2)cc1NC(=O)Cc1cccc2ccccc12 | -13 | 1.61
c1ccc(CN2CCC(c3ccsc3)CC2)nc1 | -1 | 0.1
COc1ccccc1NC(=O)c1c(OC)cc(=O)n2c1CCCC2 | -3 | 0.44
O=C1C[C@@H]2O[C@H](CN(Cc3ccc(F)c(F)c3)C[C@@H]3CN(CCO3)C(=O)[C@@H]3C[C@@H](CN3C3Cc4ccccc4C3)N1)[C@@H](O)[C@H]2O | 15 | -1.75
Cc1cc(Cl)c2c(c1)c(=O)c(C#N)cn2CC(=O)N1CCC[C@H](C)C1 | -3 | 0.48
CCc1cc(-c2nccn2CCN2CCc3ccccc32)on1 | 14 | -1.84
CC(C)(NC(=O)c1nccn2ccnc12)C(=O)Nc1ccccc1 | -3 | 0.43
CC(C)[C@H](NC(=O)C(=O)Nc1cnc2ccccc2c1)c1ccccn1 | -23 | 4.32
N#CCCCn1nnnc1CCCc1ccccc1 | -10 | 1.49
CCN1[C@H](C)CN(Cc2nnnn2C(C)(C)C)C[C@@H]1C | -2 | 0.26
C[C@@H](Cn1cncn1)NC(=O)CCC(F)(F)F | -18 | 3.15
Cc1noc2c1N=C(c1ccc(F)cc1)C[C@@H](c1ccc(F)cc1)C2 | 36 | -4.61
COC(=O)[C@]1(F)CCN(Cc2nc(-c3ccccc3)cs2)C1 | -9 | 1.83
C[C@@H](CN1CCOCC1)NC(=O)c1ccc2ncsc2c1 | -1 | 0.17
O=C(CO[C@H]1CCOC1)N1CCCc2cc(Cl)ccc21 | -4 | 0.32
CCOc1ccc(NS(=O)(=O)c2ccc(-c3[nH]ncc3C(=O)N3CCCCC3)o2)cc1 | -10 | 1.15
Cc1cc(Cl)cc(C(=O)N(C[C@H](C)O)C(C)C)c1 | 9 | -1.73
COC(=O)c1cccc(CN2C[C@@H]3C[C@@H](O)CN3C3(C2)CN(Cc2ccc(S(C)(=O)=O)cc2)C3)c1 | 8 | -1.44
Cc1ccccc1CC1(NC(=O)CC2CCNCC2)CC1 | 3 | -0.46
C[C@@H](CCC(=O)NCc1cc(-c2ccccc2F)no1)N1CCOCC1 | -8 | 1.25
CCC(=O)N1CCN(C(C)=O)[C@@H]1c1ccccc1 | 6 | -0.78
Cc1oc(-c2cccc(F)c2)[n+]([O-])c1C | 5 | -0.64
Cc1noc(CN2CCN([C@H]3CCN(Cc4ccccc4F)C3)C2=O)n1 | 0 | -0.05

Structure (SMILES) | % Inhibition [%] | Z score
COc1cc(OC)cc(C(=O)N(C)C)c1 | -3 | 0.4
O=C(Cc1nnc(-c2cccs2)o1)NC1CCCCCC1 | -14 | 1.44
COc1cncc(S(=O)(=O)N2c3ccccc3CC2(C)C)c1 | 21 | -2.73
O=C(c1cc2ccccc2c(=O)[nH]1)N1CCC(Nc2cccnc2)CC1 | -12 | 2.07
Cc1ccc([C@@H]2CCCN2S(=O)(=O)CCOC(C)C)s1 | -1 | 0.21
CCn1cc(Br)c(=O)c(NC(=O)[C@H]2CCCOC2)c1 | 30 | -4
Cc1nc(-n2cnnc2)ccc1-c1cc(O)cc(CC[C@H]2CCCCN2)c1 | -7 | 0.8
O=C(Nc1ccccc1F)N[C@H]1CCCS(=O)(=O)C1 | 3 | -0.38
Cc1ccccc1C(=O)N(Cc1ccc(F)cc1)c1cccc(CC(=O)NCCCN2CCOCC2)c1 | -2 | 0.15
Cc1noc(C)c1NC(=O)NCCCCn1ccnc1C | 8 | -0.88
CCc1ccc(-c2ccc(NC3CCCCC3C)nn2)cc1S(N)(=O)=O (stereo not drawn) | -25 | 4.92
Cn1cc(Cl)c(C(=O)N2CCC[C@H]2c2cccs2)n1 | -6 | 1.17
O=S(=O)(c1ccc2c(c1)CCC2)N1CCC(c2ncc[nH]2)CC1 | 2 | -0.35
COCCC(=O)N[C@H]1CC[C@]2(C)CC[C@@H]([C@H](C)C(=O)NCc3ccccn3)[C@H](O)[C@H]2[C@@H]1C | -9 | 1.15
O=C(NC1CCCC1CCO)N1CCc2ccccc2CC1 (stereo not drawn) | -5 | 0.73
Cc1cccc(N2CCN(c3nc4ccccc4c(=O)n3Cc3ccccc3)CC2)c1C | -12 | 1.61
N#Cc1cccc(OCCn2nnc3ccccc3c2=O)c1 | 1 | -0.08
O=C(c1ncoc1[C@@H]1CCCO1)N1CC(Cc2ccc(F)c(F)c2)C1 | 28 | -3.18
O=S1(=O)CCN(c2cc(NCc3ncc[nH]3)ccc2F)CC1 | -5 | 0.45
O=C(Nc1ccnn1C1CCN(Cc2ccccc2)CC1)[C@H]1CCOC1 | -10 | 1.08
CCC(=O)NCCn1cnc(-c2ccccc2)c1-c1ccc2nonc2c1 | -10 | 1.88
O=C(CN1CCN(C(=O)Nc2ccccc2)CC1=O)NCc1ccccc1Cl | -22 | 2.79
CC(=O)N1CCCN(c2nc(C3CCOCC3)nc3c2cnn3-c2ccccc2)CC1 | -12 | 1.34
Cc1ncc(CCNCc2cc(F)cc(F)c2)s1 | 8 | -0.93
CC(C)[C@H](CNC(=O)N1CCC2(CCCC2)C1)c1ccnn1C | -13 | 1.72
CCc1ccccc1S(=O)(=O)NCc1oc(C)nc1C | 16 | -1.84
Cc1c(F)cccc1CN1C[C@@H](C(=O)O)C[C@H](C(=O)Nc2ccc(F)cc2)C1 | 13 | -1.77
